# Data as given in the supplement of paper PMC8728848.
# This is one part of the list.
# B1: SSA (Sclerotinia sclerotiorum), A7XUK7 (protein)
# chain: MGFKGVGTYEIVPYQAPSLNLNAWEGKLEPGAVVRTYTRGDKPSDNAKWQVALVAGSGDSAEYLIINVHSGYFLTATKENHIVSTPQISPTDPSARWTIKPATTHQYEVFTINNKVSELGQLTVKDYSTHSGADVLSASAKTADNQKWYFDAK
# Experiments:
# Assay in all cases: glycan array binding signal (z-score within array); higher = stronger binding
# Settings in all cases: glycan notation: IUPAC condensed, linker removed
# [1] = target: Gal(b1-4)GlcNAc(b1-3)[Gal(b1-4)GlcNAc(b1-6)]Gal(b1-4)GlcNAc
# Procedure, shortened: (§1)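 Glycan array data came from 3228 arrays in the Consortium for Functional Glycomics database, and only arrays with an available protein sequence were kept. Glycan names were put into IUPAC-condensed notation, and columns mapping to the same glycan were averaged. The binding signal is a within-array Z-score, averaged across arrays of one protein sequence run at different concentrations or buffers and across linkers. A negative Z-score can be read as non-binding.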
# [2] = target: Gal(b1-4)GlcNAc(b1-3)[Gal(b1-4)GlcNAc(b1-6)]GalNAc
# Procedure, shortened: as §1
# [3] = target: Gal(b1-4)GlcNAc(b1-3)[GlcNAc(b1-6)]Gal(b1-4)GlcNAc
# Procedure, shortened: as §1
# [4] = target: Gal(b1-4)GlcNAc(b1-6)Gal(b1-4)GlcNAc
# Procedure, shortened: as §1
# [5] = target: Gal(b1-4)GlcNAc(b1-6)Gal(b1-4)GlcNAc(b1-6)GalNAc
# Procedure, shortened: as §1
# [6] = target: Gal(b1-4)GlcNAc(b1-6)GalNAc
# Procedure, shortened: as §1
# [7] = target: Gal(b1-4)GlcNAc(b1-6)[Gal(b1-3)]GalNAc
# Procedure, shortened: as §1
# Gal3S(b1-3)GalNAc = target: Gal3S(b1-3)GalNAc
# Procedure, shortened: as §1
# Gal3S(b1-3)GlcNAc = target: Gal3S(b1-3)GlcNAc
# Procedure, shortened: as §1
# [8] = target: Gal3S(b1-3)[Fuc(a1-4)]GlcNAc
# Procedure, shortened: as §1
# Gal3S(b1-4)Glc = target: Gal3S(b1-4)Glc
# Procedure, shortened: as §1
# Gal3S(b1-4)Glc6S = target: Gal3S(b1-4)Glc6S
# Procedure, shortened: as §1
# Gal3S(b1-4)GlcNAc = target: Gal3S(b1-4)GlcNAc
# Procedure, shortened: as §1
# Gal3S(b1-4)GlcNAc6S = target: Gal3S(b1-4)GlcNAc6S
# Procedure, shortened: as §1
# [9] = target: Gal3S(b1-4)[Fuc(a1-3)]Glc
# Procedure, shortened: as §1
# Gal3S4S(b1-4)GlcNAc = target: Gal3S4S(b1-4)GlcNAc
# Procedure, shortened: as §1
# Gal3S6S(b1-4)GlcNAc = target: Gal3S6S(b1-4)GlcNAc
# Procedure, shortened: as §1
# Gal3S6S(b1-4)GlcNAc6S = target: Gal3S6S(b1-4)GlcNAc6S
# Procedure, shortened: as §1
# Gal4S(b1-4)GlcNAc = target: Gal4S(b1-4)GlcNAc
# Procedure, shortened: as §1
# Gal4S6S(b1-4)GlcNAc = target: Gal4S6S(b1-4)GlcNAc
# Procedure, shortened: as §1
# Gal6S(b1-4)Glc = target: Gal6S(b1-4)Glc
# Procedure, shortened: as §1
# Gal6S(b1-4)Glc6S = target: Gal6S(b1-4)Glc6S
# Procedure, shortened: as §1
# Gal6S(b1-4)GlcNAc = target: Gal6S(b1-4)GlcNAc
# Procedure, shortened: as §1
# Gal6S(b1-4)GlcNAc6S = target: Gal6S(b1-4)GlcNAc6S
# Procedure, shortened: as §1
# GalNAc(a1-3)Gal = target: GalNAc(a1-3)Gal
# Procedure, shortened: as §1
# GalNAc(a1-3)GalNAc = target: GalNAc(a1-3)GalNAc
# Procedure, shortened: as §1
# GalNAc(b1-3)Gal = target: GalNAc(b1-3)Gal
# Procedure, shortened: as §1
# [10] = target: GalNAc(b1-3)Gal(a1-4)Gal(b1-4)GlcNAc
# Procedure, shortened: as §1
# [11] = target: GalNAc(b1-3)Gal(a1-4)Gal(b1-4)GlcNAc(b1-3)Gal(b1-4)Glc
# Procedure, shortened: as §1
# GalNAc(b1-3)GalNAc = target: GalNAc(b1-3)GalNAc
# Procedure, shortened: as §1
# GalNAc(b1-4)GlcNAc = target: GalNAc(b1-4)GlcNAc
# Procedure, shortened: as §1
# [12] = target: GalNAc(b1-4)GlcNAc(b1-2)Man(a1-3)[GalNAc(b1-4)GlcNAc(b1-2)Man(a1-6)]Man(b1-4)GlcNAc(b1-4)GlcNAc
# Procedure, shortened: as §1
# Glc(a1-4)Glc = target: Glc(a1-4)Glc
# Procedure, shortened: as §1
# Glc(a1-6)Glc(a1-6)Glc = target: Glc(a1-6)Glc(a1-6)Glc
# Procedure, shortened: as §1
# Glc(b1-4)Glc = target: Glc(b1-4)Glc
# Procedure, shortened: as §1
# Glc(b1-6)Glc = target: Glc(b1-6)Glc
# Procedure, shortened: as §1
# GlcA(b1-3)Gal = target: GlcA(b1-3)Gal
# Procedure, shortened: as §1
# GlcA(b1-3)GlcNAc = target: GlcA(b1-3)GlcNAc
# Procedure, shortened: as §1
# GlcA(b1-6)Gal = target: GlcA(b1-6)Gal
# Procedure, shortened: as §1
# [13] = target: GlcNAc(a1-3)Gal(b1-4)GlcNAc
# Procedure, shortened: as §1
# [14] = target: GlcNAc(a1-4)Gal(b1-3)GlcNAc
# Procedure, shortened: as §1
# [15] = target: GlcNAc(a1-4)Gal(b1-4)GalNAc
# Procedure, shortened: as §1
# [16] = target: GlcNAc(a1-4)Gal(b1-4)GlcNAc
# Procedure, shortened: as §1
# [17] = target: GlcNAc(a1-4)Gal(b1-4)GlcNAc(b1-3)Gal(b1-4)Glc
# Procedure, shortened: as §1
# [18] = target: GlcNAc(a1-4)Gal(b1-4)GlcNAc(b1-3)Gal(b1-4)GlcNAc
# Procedure, shortened: as §1
binder,measurement,setting,value
B1,glycan array binding signal (z-score),[1],0.146
same,glycan array binding signal (z-score),[2],0.463
same,glycan array binding signal (z-score),[3],-0.257
same,glycan array binding signal (z-score),[4],-0.37
same,glycan array binding signal (z-score),[5],0.004
same,glycan array binding signal (z-score),[6],2.43
same,glycan array binding signal (z-score),[7],0.195
same,glycan array binding signal (z-score),Gal3S(b1-3)GalNAc,-0.332
same,glycan array binding signal (z-score),Gal3S(b1-3)GlcNAc,-0.164
same,glycan array binding signal (z-score),[8],-0.255
same,glycan array binding signal (z-score),Gal3S(b1-4)Glc,-0.202
same,glycan array binding signal (z-score),Gal3S(b1-4)Glc6S,-0.062
same,glycan array binding signal (z-score),Gal3S(b1-4)GlcNAc,-0.136
same,glycan array binding signal (z-score),Gal3S(b1-4)GlcNAc6S,-0.019
same,glycan array binding signal (z-score),[9],-0.12
same,glycan array binding signal (z-score),Gal3S4S(b1-4)GlcNAc,0.008
same,glycan array binding signal (z-score),Gal3S6S(b1-4)GlcNAc,-0.098
same,glycan array binding signal (z-score),Gal3S6S(b1-4)GlcNAc6S,0.018
same,glycan array binding signal (z-score),Gal4S(b1-4)GlcNAc,-0.275
same,glycan array binding signal (z-score),Gal4S6S(b1-4)GlcNAc,0.069
same,glycan array binding signal (z-score),Gal6S(b1-4)Glc,-0.267
same,glycan array binding signal (z-score),Gal6S(b1-4)Glc6S,0.078
same,glycan array binding signal (z-score),Gal6S(b1-4)GlcNAc,-0.222
same,glycan array binding signal (z-score),Gal6S(b1-4)GlcNAc6S,0.403
same,glycan array binding signal (z-score),GalNAc(a1-3)Gal,6.1
same,glycan array binding signal (z-score),GalNAc(a1-3)GalNAc,2.95
same,glycan array binding signal (z-score),GalNAc(b1-3)Gal,3
same,glycan array binding signal (z-score),[10],4.61
same,glycan array binding signal (z-score),[11],6.97
same,glycan array binding signal (z-score),GalNAc(b1-3)GalNAc,-0.399
same,glycan array binding signal (z-score),GalNAc(b1-4)GlcNAc,5.32
same,glycan array binding signal (z-score),[12],0.464
same,glycan array binding signal (z-score),Glc(a1-4)Glc,-0.263
same,glycan array binding signal (z-score),Glc(a1-6)Glc(a1-6)Glc,-0.343
same,glycan array binding signal (z-score),Glc(b1-4)Glc,-0.333
same,glycan array binding signal (z-score),Glc(b1-6)Glc,-0.332
same,glycan array binding signal (z-score),GlcA(b1-3)Gal,-0.355
same,glycan array binding signal (z-score),GlcA(b1-3)GlcNAc,-0.209
same,glycan array binding signal (z-score),GlcA(b1-6)Gal,-0.271
same,glycan array binding signal (z-score),[13],-0.323
same,glycan array binding signal (z-score),[14],-0.065
same,glycan array binding signal (z-score),[15],0.223
same,glycan array binding signal (z-score),[16],-0.441
same,glycan array binding signal (z-score),[17],-0.171
same,glycan array binding signal (z-score),[18],-0.207
